The RNAGym collection of RNA variant scans (doi:10.7554/elife.90254)
The source gives no read counts; variants with many changes may rest on few reads.

B1: LINE1-mini (parent)
chain: GGCAGAGCUCAACACAGCGUGGCAAAGUGGCUGUGGCUAGACUGCC

Variants of: B1
Experiment: self-cleavage, relative activity (ratio to wild type); higher = more cleavage; in vitro, sequencing; the parent is a self-cleaving ribozyme

Variant	self-cleavage
GGCAGAGCUCAACACAGUGUGGCUAAGUUGCUGUGGCUAGACUGCC	1.2
GGCCGAGAUGAACACAGCGUGGCAAAGUGGCUGUGGCUAGACUGCC	0.03
GGCCGAGCUCCACACAGCGUGGCAAAGUGGCGGUGGCUAGUCUGCC	0
GGCAGAGCUCAACAGAGCGUGGCAAAGUGCCUUUGGAUAGACUGCC	0.03
GGCGGAGCUCAACACAGCGUGGCAAAUUGGCUGUGGGUAGACUGCU	0.01
GGCAGAGCUCAGCACACCGUGGCAAAGUGGCUGUUGCUAGUCUGCC	0.03
GGCGGAGCUCAACAAAGCGUGGCCAAGUGGCUGUGGCUAGACUGCC	0.04
GGCAUAGCUCAACACAGCGUGGCAAAGUGGCUGUGGCUAGGUUGCC	0.03
AGCAGAGCUCAACACAGCGUGGCAAAGGGGCUGUGGCUAGACUGCA	1.38
GGCAGAGCUCAAGACAGCGUGGCAAACUGGCUGUGGCUAGACUGCU	0.06
GGAAGAGCUCAACACCGCUUGGCAAAGUGGCUGCGGCUAGACUGCC	0.02
GGCAGAGCUCAACACAGCGAGGCAAAGUGGCUGUGGCUAGUCUUCC	0.12
GGCAGAGCUCAAUACAGCGUGGCAAAGUGGCUGUGGCUGGACUGGC	0.03
GGCAGAGCUAAACACAGCGUGGCAAAGUGGCUGUGGCGAGAGUGCC	0.02
GGCAAAGCUCAACACAGCGUGGCAAAGUGACCGUGGCUAGACUGAC	0.06
GACAGAGCUCCACACAGCGUGGCAUAGUGGCUGUCGCUAGACUGCC	0.02
GGCAGAGCUCAACACAGCGUGGCAAAGUGGUUGUGGCAAGAGUGCC	0.03
GGCAGAGCUCAUCACAGCGUGGCAAAGCGGCUGUGACUACACUGCC	0.16
GGCAGAGCAGAACACAGCGUGGUAAAUUGGCUGUGGCUAGACUGCC	0.02
CACAGAGAUCUACACAGCGUGCCAAACUGGCUGUGGCUGGACUGCC	0.01
GGCAGAGAUCAAAACGGCGGGGCAAAGUGGCUGUAGCUAGACUGCC	0.05
GGCACAGCUCAACACAGCGUGGCUAAAUGGCUGUGGCUAGACUGCC	0.06
GGCAGAGCUAAACACAGCGUGGCAAAGUGGCUGUGGCUAGCGUGCC	0.02

Variant	self-cleavage
GGUAGAGCUCAGCACAGCGUGGCAAAGUGGCGGUGGCUAGACUGCU	0.15
GGCAGCGCUCAACACAGCGUGGCGAAGUGGCUGUGGCAAGAAUGCC	0.03
GGCAGAGCUCAACACAGCGUGGAAAAUUGGCUGUGGCUAGUCUGCC	0.44
GGCAGAGCUCAAAACAUCGUGGCAAAGUGGCUGUGGAUAGACUGCC	0.05
GGCAGAACUCAACUCAGCGUGGUAAAGUGGCUGUGGCUAGACUGCC	0.02
GGCAGAUCUCACUACAGCGUGGCAAAGUGGCUGUGGCUAGACUGUC	0.04
GGCAGAGCUCAACACAGCGUGUCAAUAUUGCUGUGGCUAGACUUCC	0.19
GGCAGAGCUCACAACAGCGUGGCAAAGUGGCUGUGGCUAUACUGCC	0.13
GGCAGAGCUCAACUCAGCGUGGCAAAGUGGAUCUGGCUAGACUGCC	0.07
GGCAGAGCUCAACACAGGGUGGCAAAGCUGCUGUGGCUAGACUGCC	0.87
GGGAGAGCGCAACACAGCGUGGCGAAGUGGCUGUGGCUAGACUGCC	0.06
GGAAUAGCUCAACACAGACUGGCAAAGGGCCUGUGGCGAGAAUGCC	0
GGCAGAGCUCAACACAGCGUGGCAAAUUGGAGGUAGCUAUACUGCC	0.01
UGCAGUGCUCAACACAGCGUGGCAUAGUGGCUGUGGCUAAACUGCC	0.02
GGCAAAGCUCAACACAGCGUGGCAAAGUUGCUGUGGCUAGACCGUC	0.07
GGCAGAGCUCAACACAGCGUGGCAAAGUGGCUGUGGCUGGAGUGCU	0.1
UGCAGAGCUCAACACAGCGUGGCACAUUCGCUGUGGCUAGACUGAC	0.24
GGCAGAGCACAACACCGCGUGGUAAAGUGGCUGUGGGUAGACUGCC	0.03
GGCAGACCUCAACACAGCGUGGCAAAGUGACUGUGGCUAGAAUGCC	0.05
GGCAGAGCUUAACAAAGCGUGGCAAAGUGUCUGCGGCUAGACUGCC	0.03
GGCAUAGCUCAACACAGCUUGGCAAAGUUGCUGUGGCUAGACCGCC	0.01
GGCCGAGCUCAACACAGCGAGGCAAAGAUGCUGUGCCUACACUGCC	0.16
GGCAGAGCUCAACACAGCGUGGCAAAGUGGGUGUGGCUAUACUGCA	0.11

Variant	self-cleavage
GGCAGAGCUCAACACAGCGUGGCAAAUUGGCUGUGGUUAUACUGCC	0.28
GACAAAGCUCAACACAGCGUGGCAAAGUGGCUGUGGCUAGACUCCC	0.13
GGCAGAGCUCAACACAGCGUGGCAAAGUGACUGUGGCUAGGCUGCU	0.29
GGCAGAGCUCAACAUAGCGUGGCAAAGUGGCUGUGGUUAGACUCCC	0.14
GGCAGAGCUCCACAUAGCGUGGCAAAGAGGCUGUGGCUAGACUGCC	0.03
GGCAGAGCUCAACACAGCGUGGAAAAGUGGCAGUGGCUAGACAGCC	0.06
GGUAGAGCUCAACACAGCGUGGCAAUGUGGCUGUGGCUAGCCUGCC	0.05
GGCAGAACUCAACACAGCGUGGCAAAGUGGCUGUGGCUAGACUAGC	0.17
UGCUGAGCUCAACACAGCGUGGCAAAGUGGCUGUGACUCGACUGCC	0.08
GGCACAGCUCAAAACAGCGUGGCAAAGUGGCCGUGGCUAAAUUGCU	0.16
GGCAGACCUCAACACAGCGUGGCAUAGUGUCUGUGGCUAGACUGCC	0.05
GGCAGAGCCCAAAACAGCGUGGCAAAGUGGCUGUGGCUAGACUGCG	0.02
GGCAGAGCUGUACACAGCGUGGCAACGUGGCUGUGGCUAUACUGCC	0.01
GGCUGAGUUCAACACAGCGUGGCAAAGUGGCUGUGGAUAGACUGCC	0.26
GUCAGAGCUCAACACAGCGUGGCAAAGUGGCUGUGUCCAGACUGCC	0
GGCAGAGCUCAACACAGCGUGGCAAAGUGUCAGUGACUAAACUGCC	0.01
GUCAGAACUCAACACAGCGUGACAAGGUGGCUGGGGCUAGACUGCA	0.05
GCCAGAGCUCAACACAGCGUGGCAAAGUGGCUGGGGCUAGACUGAC	0.1
GGCGGAGCUCAACACAGCGUGGAACAGUGGCUGUGGCUAGACUGCC	1.74
GGGUUAGCUCAACAGAGCGUGGCAAGGUAGCUGUGGCUAGACUGUC	0.1
GGCAGAGCUCACCAGAGAGCCCCAAAGUGGCUGUGGCUUGACUGCC	0.01
AGCAGAGCUAAACACAGUGUGGCAAGGUGGCUGUGGCAAGACUGCC	0.23
GGCAGAGCUCAACACUGCGUGGCUAAGUGGCUGUGGCUAGACUGGC	0.11

Variant	self-cleavage
GGCACAGCCCAAGACGGCGUGGCAAAGUGGCUGUGGCUAGACUAAC	0.01
GGCAGAGCUAAACUCAGCGAGGCAAAGUGGCUGUGCCUAGACUGCC	0
GGCAUAGUUCAACACAGCGUGUCAAAGUGGCCGUGGCUAGACUGCC	0.08
GGCAGAGCCAAACACAGCGUGGAAAAGUGGCUGUGGCUAGACUGCC	0.02
GGCUGAGCUCAACACAGCAUGGCAAAGUGGCUGUGGCUAAAUGGCC	0.14
GGCAGAGCUCCACACAGCGUGGCAAAGAGGCUGUGGCUAGACUGCA	0.04
GGCAGCGCUCAACACGGCGUGGCAAAGUGGCUGUGGCUAGUGUGAC	0.01
GGCAGUGCUGAACCCAGCGUGGCAAAGUGGCUGUGGCUUGACUGCC	0.05
GACAGAGCUGAACACAGCGUGGCAAAGUCGCUGUGGCUAGACUGCC	0.2
GGCAGAGCUCGACACAGCGUGGCAAUGUGGAUGUGGCUAGACAGCC	0.01
GGCCGAGCUCAACACAGUGUGGCAAAGUGGCCGUGGCUAGACUGCC	0.02
GCCAGAUCGCCAUACACCGUGGCAAAGUGGCUGUGGCUAGACUGCG	0.01
GACAGAGCUCAACACAGCGUGCCAAAGUGGAUGUGGCUAGACUACC	0.12
GGCAGAGCUAAACACACCGUGGCAAAGUGGCCGUGGCUAGACUGCC	0.05
GGCAGAGCUAAACAUAGCGUGGCAAAGUGGCUGUGGCUAGAGUGCC	0.02
UGCCGAGCUCAACACAGCGUGGCAUAGUGGCUGUGGCUAGACUGCC	0
GGGAGAGCACAUUACAGCGUGGCAACGUGGCUUUGGCUAAACUGCC	0.05
GGCAGAACGAAACCCAGCGUGGAAAAGUGGCUGUGGCUAGACUGUC	0.02
AGCAGAGCUCAACACAGCGUGCCAAAGUGGCUGCGGCUAGACUGCC	0.09
GGCAGAGCUCAACACACCGGGGCAAAUUGGCUGUGGCUAGACUGCC	0.12
GGCAGAGCACAACAGAGCGUGGCAAAGCGGCUGUGGGUAGACUGCC	0.02
GGACGACCUCAACACAGCGUGGCAAAGUGGCGGUGUCUAGACUGCC	0.03
GACAGAGCUCAACACACCGUGGCAACGUGGCUGUGGCUAGACUGCC	2.55

Variant	self-cleavage
CGCAUAGCUCAACACAGCGUGGCGAAGUGGCUGUGGCUAGACUGCC	0.01
GGCAGAGCUCAUCACUGCGAGGCAAAGUGGCUGUGGCUAGACUGCC	0.13
CGCAUAGCUCAACACAGAGUGGCAAAGUGGCUGUAGCUAGACUGCG	0.01
GGCAGAGCUCAAUACAGCGUGUCUAAGUGGCUGUGGCUAGACUGCC	0.26
GGCAGAGCUCAACACAGCGGGGCAAAGUGGCUGAGUCUAGACUGCC	0.02
GGCAGAGCUCAACACAGCGUGGCUAAGUAGCUUUGGCUAGACUGUC	0.05
GGCAGAGCUCAACACAGCGUGACAAAGGGGGUGUGGCUAGACUGCC	0.1
GGCAGAGCUCAACACUUCGUGGCAAAGUGGCUGUGGCUAGAAUGCC	0.21
GGCACAGCUCAACACAGCGUGGCAAAGUGGGUGUGGAUAGGCUGCC	0.03
GGCAGAGGUCAACACAGCGUGGCAAAGUUGCUAUGGCUAGACUGCC	0.06
GGCUGAGCUCAACACAACGUGGCACAGUGGCUGUGGCUAGACUGCC	0.07
GGCUUAGCUCAACACAGCGUGGCAAAGUGGCAGUGGCUAGACUGCC	0.03
GGCAGGGCUCAUCACAGCGUGGCAAAGUGGCUGUGGCUAGACUGUC	0.1
GGACGAGCUCAACACAGCGUGGCAAAGUGGCUGUGGCUAGACUGCG	1.14
GGCAGAGCUCAACACAGCGUGGCAAAGUCGCUGUGGCUAGCAUGCC	0.03
GGAAGAGCUCAACACACCUUGGCAAAGUGGCUGUUGCUGGACUGCC	0.03
GACCGAGCUCAACACAGCGAGGCAAAGUGGCUGUGGCUAGACUGCC	0.15
GGCAAAGCUCAACACAGCGUGGCAAAUUGGCUGUCGCUAGACUGCC	0.06
GGCAGAGCUCCCCACCGCGUGGCAAAGUGGCUGUGGCUAGACUGCC	0.04
GGCAUAGCGCAACACAGCGUGACAAAGUGGCUGUGGCUAGACUGCC	0.06
